# PMC4336329 (PLoS ONE, 2015)
# Hit rate of the full screen: of about 310,000 compounds, about 2,200 (0.71%) showed an effect of 50% or more. Effects have a minus sign here. Some of the results follow.
# Biological target: human ether-à-go-go-related gene (hERG) potassium channel (human, UniProt Q12809)
# Test: primary screen, population patch clamp on CHO cells stably expressing hERG
# Sequence of human ether-à-go-go-related gene (hERG) potassium channel (Q12809 whole entry, looked up): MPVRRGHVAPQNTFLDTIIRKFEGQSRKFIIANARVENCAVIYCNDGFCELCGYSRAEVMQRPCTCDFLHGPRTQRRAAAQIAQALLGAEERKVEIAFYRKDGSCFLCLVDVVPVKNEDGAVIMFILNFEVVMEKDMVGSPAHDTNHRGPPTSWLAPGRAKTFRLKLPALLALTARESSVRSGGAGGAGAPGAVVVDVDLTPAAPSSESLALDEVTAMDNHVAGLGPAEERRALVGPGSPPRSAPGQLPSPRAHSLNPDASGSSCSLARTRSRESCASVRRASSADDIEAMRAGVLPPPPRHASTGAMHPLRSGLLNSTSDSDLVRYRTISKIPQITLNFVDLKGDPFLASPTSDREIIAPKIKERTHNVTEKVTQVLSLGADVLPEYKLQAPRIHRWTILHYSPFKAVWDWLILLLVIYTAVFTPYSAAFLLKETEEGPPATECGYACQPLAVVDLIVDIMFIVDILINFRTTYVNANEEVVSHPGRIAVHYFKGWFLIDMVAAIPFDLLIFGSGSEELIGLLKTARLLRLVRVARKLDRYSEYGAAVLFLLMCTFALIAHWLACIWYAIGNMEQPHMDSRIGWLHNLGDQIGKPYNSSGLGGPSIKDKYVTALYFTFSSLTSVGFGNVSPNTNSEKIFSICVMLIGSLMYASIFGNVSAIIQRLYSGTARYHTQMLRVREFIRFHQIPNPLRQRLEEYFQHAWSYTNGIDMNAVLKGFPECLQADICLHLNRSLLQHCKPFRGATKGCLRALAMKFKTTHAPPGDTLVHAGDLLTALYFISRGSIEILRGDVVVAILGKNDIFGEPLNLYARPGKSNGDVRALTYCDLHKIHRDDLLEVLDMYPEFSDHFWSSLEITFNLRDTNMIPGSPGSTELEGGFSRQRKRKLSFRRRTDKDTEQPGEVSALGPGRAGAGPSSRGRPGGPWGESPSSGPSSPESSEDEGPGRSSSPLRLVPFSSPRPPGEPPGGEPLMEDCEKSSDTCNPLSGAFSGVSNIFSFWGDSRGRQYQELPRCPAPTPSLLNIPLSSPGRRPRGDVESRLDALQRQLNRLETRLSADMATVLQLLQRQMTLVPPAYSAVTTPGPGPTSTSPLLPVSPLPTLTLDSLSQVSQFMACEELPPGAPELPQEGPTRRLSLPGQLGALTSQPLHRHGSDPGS
row,SMILES,"hERG current change (%, negative = inhibition) at 1uM [%]"
1,CC(C)c1nc(C#N)c(NN)o1,13.6
2,COc1ccccc1NC(=O)c1ccc(CSc2ccccc2)o1,-11.3
3,Cc1ccc(NC(=O)c2nc[nH]c2C(=O)N[C@H](C)c2ccccc2)cc1,17.7
4,COc1ccc(NC2=Nc3ccccc3N3C2=Nc2c(c(C)nn2-c2ccc(C)cc2)C3c2cccnc2)cc1 (centres unmarked),17.7
5,NC(=O)C1CCN(C(=O)Cc2ccsc2)CC1,5.53
6,COc1cccc(OCc2cc(C(=O)N3CCC(c4ccncc4)CC3)no2)c1,-0.65
7,Cc1cc(C)nc(SCc2nnc(SCC(N)=O)o2)n1,5.92
8,CCCCCC(=O)N/N=C/c1cc(Br)c(O)c(OC)c1,10.8
9,CCN1CCN(Cc2nc3c(c(=O)n(C)c(=O)n3C)n2C(C)C(C)=O)CC1 (centres unmarked),20.2
10,COc1ccccc1CCC(=O)Oc1ccc(C#N)cc1OC,7.54
11,COC(=O)c1ccc(/C=N/NC(=O)C2CC(=O)N(c3ccc(F)cc3)C2)cc1 (centres unmarked),16.8
12,CCOC(=O)Nc1cc(C(=O)OC)ccc1C,4.24
13,Cc1ccc2[nH]c(=S)cc(C)c2c1,14.7
14,CSc1nnc(C)c(=O)n1COC(=O)c1ccc(S(=O)(=O)N2CCCC2)cc1,-19.4
15,CC(=O)NC(Cc1ccccc1F)C(=O)NC1CCN(C(=O)NCc2ccccc2)CC1 (centres unmarked),3.12
16,O=C(O)/C=C\C(=O)Nc1ccccc1C#Cc1ccccc1,9.27
17,O=c1ccc(=O)n(-c2ccccc2)[nH]1,11.9
18,COc1ccc(CCN(C(=O)c2ccco2)C(C(=O)NC2CCCC2)c2ccncc2)cc1OC (centres unmarked),-14.3
19,COC(=O)Cn1ncc(N2CC(C)OC(C)C2)c(Cl)c1=O (centres unmarked),15.7
20,CC(C(=O)NCc1ccccn1)c1ccc([N+](=O)[O-])cc1 (centres unmarked),-0.451
21,COc1ccc2cc(C(C)C(=O)O)ccc2c1 (centres unmarked),9.27
22,Cn1c(CN2CCN(c3cccc(Cl)c3)CC2)nc2ccccc21,-8.92
23,CCC(Oc1ccccc1)C(=O)Nc1ccc(S(=O)(=O)Nc2cnc3ccccc3n2)cc1 (centres unmarked),-1.44

row,SMILES,"hERG current change (%, negative = inhibition) at 1uM [%]"
1,O=C(NCc1ccco1)c1nn(-c2ccccc2)c(=O)c2ccccc12,-7.78
2,COc1ccc(-c2nc(CS(=O)CC(=O)NCCN3CCCCC3C)c(C)o2)cc1OC (centres unmarked),14.7
3,Cn1nc(-c2ccc(Cl)cc2)c2cc(C(=O)NCc3ccco3)sc21,0.219
4,CC(Sc1nc(-c2ccccc2)cc(C(F)(F)F)n1)C(=O)O (centres unmarked),11.3
5,Cc1ccc2oc(=O)n(CCCOc3ccccc3)c2c1,8.51
6,COc1cc(S(C)=O)ccc1-c1nc2ncccc2[nH]1 (centres unmarked),6.39
7,Cc1ccc(C2=NOC(c3nnc(-c4ccccc4)o3)C2)cc1 (centres unmarked),5.56
8,Cc1ccc(SCC(=O)NC(=O)Nc2ccc3c(c2)OCCO3)c(C)c1,4.47
9,Cc1ccc(C)c(/C=N/n2cc(-c3ccccc3)[nH]c2=S)c1,16.7
10,CC1(C)Oc2cc3oc(-c4cc(O)cc(O)c4)cc3cc2CC1O (centres unmarked),11.4
11,CCC1COCCS(=O)(=O)N1Cc1ccccc1 (centres unmarked),9.21
12,CN(C)S(=O)(=O)c1cccc(COc2ncnc3c(Cl)cc(Cl)cc23)c1,17.4
13,O=C(CN1C(=O)CCC1=O)c1ccc(-c2ccccc2)cc1,2.14
14,COc1cc(C2C(C#N)=C(N)N(c3sc4c(c3C#N)CCCC4)C3=C2C(=O)CC(C)(C)C3)cc(OC)c1OC (centres unmarked),-0.174
15,COc1cc2c(cc1OC)CN(C(=O)C(C)(C)C)CC2,14.9
16,CCC[C@@H](CN[C@@H](CNC)[C@H](C)CC)NCC1CCC(C(C)(C)C)CC1 (some centres unmarked),4.79
17,Nc1c(C(=O)Nc2ccc3c(c2)OCCO3)nnn1Cc1ccccc1,6.93
18,COc1ccc(OC)c(NC(=O)CSc2nncc3ccc(OC)c(OC)c23)c1,12.3
19,O=C(NNC(=O)c1ccccc1Br)c1ccncc1,11.4
20,COc1cccc(-c2nc(-c3ccccc3)c(-c3ccccc3)[nH]2)c1OCC(=O)O,8.4
21,COc1cc(C(=O)N(Cc2ccc(N(C)C)cc2)C2CCS(=O)(=O)C2)cc(OC)c1OC (centres unmarked),5.87
22,COc1ccc(S(=O)(=O)NCCc2ccccc2)cc1,-4.73
23,COc1ccc(CCNC(=O)CN2CCN(Cc3ccccc3F)C2=O)cc1OC,9.49

row,SMILES,"hERG current change (%, negative = inhibition) at 1uM [%]"
1,O=C(CNC(=O)c1ccccc1)OC1CCCCC1,2.83
2,S=C(NCc1ccco1)Nc1ccc(Cl)cc1,1.21
3,COc1ccc(N(C(=O)Cn2nnc(-c3ccc(C)o3)n2)C(C(=O)NC2CCCC2)c2ccncc2)cc1 (centres unmarked),13.6
4,O=C(CNC(=O)c1ccc(N2C(=O)c3ccccc3C2=O)cc1)OCC(=O)c1cccc2ccccc12,2.88
5,Cc1cc(C)nc(/N=C2\NC(=O)CC(C(=O)O)N2c2ccc(F)c(Cl)c2)n1 (centres unmarked),13.4
6,CC(C)OC(=O)CC(=O)CSc1nc2c(cc1C#N)CCCC2,10.4
7,CCCCc1n[nH]c2c1/C(=N/O)CC(C)(C)C2,6.67
8,CN(C)S(=O)(=O)c1cccc(NC(=O)COC(=O)c2cc3ccccc3oc2=O)c1,3.77
9,CCc1ccccc1NC(=O)CN(c1ccc(OC)cc1OC)S(=O)(=O)c1ccccc1,14.3
10,CCc1cccc(CC)c1NC(=O)/C(C#N)=C/c1ccccc1C(F)(F)F,13.7
11,CCC(C)(C)NC(=O)C(c1ccc(F)cc1)N(Cc1ccco1)C(=O)c1cnccn1 (centres unmarked),5.46
12,O=C(NCCNc1ccc(Cl)cc1[N+](=O)[O-])c1ccccc1F,16.3
13,O=C(Cn1cnc2c(oc3ccccc32)c1=O)NCc1ccco1,6.01
14,Cc1cc(/C=C2/NC(=O)NC2=O)c(C)n1-c1sc2c(c1C#N)CCCC2,6.68
15,COc1ccc(NC(=O)/C(Cl)=C(/Cl)S(=O)Cc2ccccc2)cn1 (centres unmarked),15.7
16,O=C(Nc1ccccc1F)NC1CC1,14.1
17,O=C1CCCCCN1Cc1ccccc1,5.9
18,CC(C)CC1(C(=O)NCc2cc(F)cc(C(F)(F)F)c2)C=CCN1C(=O)c1ccccc1 (centres unmarked),16.4
19,CCOC(=O)c1sc(NC(=O)C2CC(=O)N(c3ccc(OCC)cc3)C2)nc1C (centres unmarked),15.4
20,OCC1(Cc2cccc(Cl)c2)CCCN(Cc2sc(N3CCCC3)nc2Cl)C1 (centres unmarked),9.46
21,COC(=O)[C@H](Cc1ccccc1)NC(=O)O[C@H]1C(=O)c2ccc(OC)cc2O[C@@H]1c1ccc2c(c1)OCO2,0.0735
22,Oc1ccc(-c2onc3ccc(Cl)cc23)cc1,0.54
23,COCc1cc(C)nc(SCC[N+](C)(C)CC(=O)Nc2cccc(C)c2)c1C#N.[Cl-],6.27

row,SMILES,"hERG current change (%, negative = inhibition) at 1uM [%]"
1,O=C1C=C(c2ccc(Oc3ccccc3)cc2)C[C@@H](c2ccc3c(c2)OCO3)C1,9.67
2,CCC(=O)Nc1ccc(C(=O)NNC(=O)c2ccccc2)cc1,0.95
3,CCOc1cc(CNc2ccc3c(c2)OCCO3)cc(Br)c1OCC,1.03
4,C=CCC1(NCc2ccco2)CCN(CC)CC1.O=C(O)C(=O)O,-6.99
5,O=C(Cc1c(F)cccc1Cl)NCC1CCCO1 (centres unmarked),9.07
6,O=C(NCc1ccccc1CN1CCCC1)c1cccc(S(=O)(=O)N2CCOCC2)c1,-12.6
7,O=C(Nc1nnc(-c2ccccc2F)s1)c1cccnc1,7.76
8,Cc1ccc(-c2cc(C(=O)NCc3cnn(C)c3)c3cc(Br)ccc3n2)cc1,7.5
9,O=C(Oc1cccc2ccccc12)C1CC1,10.8
10,Cc1cc(C)nc(Nc2cccc(Cl)c2)n1.Cl,13.5
11,Cc1cccc(COc2ccccc2C(=O)OCC(=O)N(C)c2c(N)n(Cc3ccccc3)c(=O)[nH]c2=O)c1,15.9
12,Cc1cc2ncn(C(=O)N3CCC(C)CC3)c2cc1C,7.46
13,COc1cc(C(F)(F)F)c(C(=O)N(C)Cc2cc(Cl)cc(Cl)c2)cn1,4.99
14,COc1ccccc1OCCNC(=O)Nc1cc(F)c(F)cc1Cl,14.5
15,CCc1ccc(CN(C)C(=O)CCc2nnc(CCc3ccccc3OC)o2)nc1,0.403
16,O=[N+]([O-])c1cccc(OCc2cn3cccnc3n2)c1,5.95
17,CCCCOC(=O)c1nnc(-c2ccc(Cl)cc2)o1,11.5
18,COc1ccc(C(=O)N2CC(c3ccccc3)CC2=O)cc1 (centres unmarked),9.89
19,CCCN(C(=O)CSc1ncnc2sccc12)c1c(N)n(Cc2ccccc2)c(=O)[nH]c1=O,3.78
20,COc1ccc(-c2nnc(N(C)C(=O)C3CCOC3)s2)cc1 (centres unmarked),8.67
